In all, about 390,000 compounds went through this assay and about 55 (0.01%) were called active. Inconclusive means that the source gave no clear call. Such entries were picked first, then a sample of the others. Calls follow the shape of the dose curve; as a rule, active = well fitted inhibition curve with a large enough effect; inconclusive = small, poorly fitted or top-dose-only effect; inactive = no such curve, though single readings can be large or run the other way. Potencies of inconclusive entries are doubtful fits and often do not repeat.
Molecular target: Thioredoxin reductase 1, cytoplasmic (Rattus norvegicus) (UniProt O89049)
Assay: qHTS Assay for Substrates of Mammalian Selenoprotein Thioredoxin Reductase 1 (TrxR1): qHTS; also: nearly all actives have a fitted effect of over 50% in size
Details: purified TrxR1 substrate turnover, NADPH consumption readout; series mostly up to 114 µM; activity change, negative = substrate turnover: at the top concentration
Text: The selenoprotein thioredoxin reductase (TrxR; EC 1.8.1.9) is a FAD containing homodimeric pyridine nucleotide-disulfide oxidoreductase with many cellular roles. Together with NADPH and its prime substrate thioredoxin (Trx), the enzyme forms the core of the Trx system. The mammalian Trx system exerts a wide spectrum of functions including redox regulation, antioxidant defense, regulation of transcription factors as well as support of cell growth and replication. Many of these functions involve the reduction of Trx, which may subsequently reduce a number of different substrates including ribonucleotide reductase, peroxiredoxins or NFkB. Mammalian TrxR itself also has a broad substrate specificity, reducing both protein and non-protein substrates, including low molecular weight compounds such as dehydroascorbate, lipoic acid, ubiquinone, and juglone. In addition, several drugs in clinical use for anticancer treatment are indeed known to target TrxR1.
This BioAssay is a validation of an NADPH fluorescence-based, dual-purpose qHTS rTrxR1 assay designed to find potential inhibitors and substrates of rTrxR1. For this particular BioAssay, actives are potential substrate. See related BioAssay for inhibition data deposition.
NIH Molecular Libraries Probe Production Network [MLPCN]
NIH Chemical Genomics Center [NCGC]
Assay Provider: Elias Arner, Karolinska Institute
Assay protocol: 2 uL of reagents (buffer in column 4 as negative control and 90 nM rTrxR1 in columns 1-3 and 5-48) were dispensed into Greiner black solid-bottom 1,536-well assay plates, followed by 1 uL of NADPH (400 uM final concentration) to each well. The plates were centrifuged at 1000 rpm for 15 seconds and subsequently incubated for 5 min at room temperature (~22 deg C) to allow for rTrxR1 reduction. Compounds (23 nL) were then transferred via Kalypsys pin tool equipped with 1536-pin array (10 nL slotted pins, V&P Scientific, San Diego, CA). In addition, a duplicate 2-fold serial dilution of the control compounds auranofin, a known gold-based TrxR1 inhibitor, and juglone (5-hydroxy-1,4-naphthoquinone), a natural TrxR1 substrate, were pin-transferred to columns 2 and 3, respectively. After incubation for 15 min at room temperature (~22 deg C), 1 uL of selenite (400 uM final concentration) were dispensed to each well. The plate was immediately transferred to a ViewLux high-throughput CCD imager (PerkinElmer), wherein kinetic measurements of NADPH fluorescence (Ex 340 nm, Em 450 nm) were acquired (8 minute kinetic read, see Table 1). Read 1 was utilized to assess the capacity of a compound to serve as an rTrxR1 substrate, i.e. a decrease in NADPH fluorescence compared to the no-compound background is an indication of a substrate behavior for that particular compound. For inhibitory activity of a compound, delta values, computed as the difference in fluorescence intensity between the first and last reads of an 8-minute time kinetic window, were used. All reagents were diluted in an assay buffer consisting of 50 mM Tris-HCl, pH 7.5, 2 mM EDTA, and 0.01% Tween-20.
Throughout the screen, reagent bottle and all liquid lines were made light-tight to minimize reagent degradation. All screening operations were performed on a fully integrated robotic system (Kalypsys, San Diego, CA) containing one RX-130 and two RX-90 anthropomorphic robotic arms (Staubli, Duncan, SC). Library plates were screened starting from the lowest and proceeding to the highest concentration, and a 'double-pinning' step of the highest concentration was required to access higher concentrations of compounds. Vehicle-only plates, with DMSO being pin-transferred to the columns 5-48, were inserted uniformly at the beginning and the end of each library in order to monitor and record any shifts in the background, which can be affected by reagent dispensers or loss in enzyme activity over time. […]
% is scaled to controls: 0 for no effect and ±100 for the full control effect; potency is read from the fitted curve at half-maximal effect; tags tell the direction and shape of the fitted curve.

Chain of UniProt O89049 (O89049 whole entry, looked up): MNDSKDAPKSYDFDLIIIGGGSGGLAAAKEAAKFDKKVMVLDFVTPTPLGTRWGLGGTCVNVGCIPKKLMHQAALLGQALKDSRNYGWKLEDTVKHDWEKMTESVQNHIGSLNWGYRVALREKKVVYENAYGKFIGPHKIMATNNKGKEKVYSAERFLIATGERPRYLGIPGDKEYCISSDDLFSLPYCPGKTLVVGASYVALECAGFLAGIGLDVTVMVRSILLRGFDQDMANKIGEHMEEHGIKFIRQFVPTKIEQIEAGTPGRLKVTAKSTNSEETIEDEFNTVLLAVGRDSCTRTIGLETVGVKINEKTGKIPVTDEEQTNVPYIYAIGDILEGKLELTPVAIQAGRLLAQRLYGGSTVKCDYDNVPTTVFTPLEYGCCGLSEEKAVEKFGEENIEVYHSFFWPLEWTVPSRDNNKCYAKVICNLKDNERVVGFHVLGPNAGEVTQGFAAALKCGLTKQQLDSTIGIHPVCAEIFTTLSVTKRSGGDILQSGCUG

| Compound | Potency | activity change, negative = substrate turnover |
| --- | --- | --- |
| c1ccc(N2CCN(c3nnnn3-c3ccccc3)CC2)cc1 | inconclusive: 39.8 µM [inhibitor, single point] |  |
| O=C(CCC(=O)c1ccc(Br)cc1)Nc1cccc(C(F)(F)F)c1 | inconclusive: 39.8 µM [inhibitor, single point] |  |
| O=C(COC(=O)c1ccc[nH]c1=O)NCCC1=CCCCC1 | inconclusive: 89.1 µM [inhibitor, partial curve, poor fit] |  |
| CC(C)(C)OC(=O)C(C)(C)O/N=C(\C(=O)O)c1csc(N)n1 | inconclusive: 89.1 µM [inhibitor, single point] |  |
| O=C1CCN(CCc2ccccc2)CCN1C(CSc1ccc(Br)cc1)c1ccccc1 (stereo unspecified) |  | inactive: 4.76% |
| CN(Cc1nc(-c2ccccc2)no1)C1CCOCC1 | inconclusive: 89.1 µM [inhibitor, partial curve, poor fit] |  |
| Cc1ccsc1/C=N/NC(=O)c1ccccn1 |  | inactive: -9.59% |
| COC(=O)CCC(=O)OC1(C)C(=O)C2=CN(Cc3ccccc3)C(c3ccc(OC)cc3)=CC2=C(Br)C1=O (stereo unspecified) | inconclusive: 31.6 µM [inhibitor, partial curve, poor fit] |  |
| COc1ccc(-c2nsc(SCC(=O)NCC3CCCO3)n2)cc1 (stereo unspecified) | inconclusive: 89.1 µM [inhibitor, partial curve, poor fit] |  |
| C[C@H](CO)N1C[C@H](C)[C@@H](CN(C)Cc2ccc(Oc3ccccc3)cc2)Oc2c(NC(=O)C3CC3)cccc2C1=O |  | inactive: -7.23% [at 57.1 µM] |
| CCOC(=O)c1sc(/N=C/c2ccc(O)cc2O)cc1C | inconclusive: 50.1 µM [inhibitor, partial curve, poor fit] |  |
| COc1ccccc1N1CCN(S(=O)(=O)c2ccc3c(c2)CCCN3C(C)=O)CC1 |  | inactive: 2.86% [at 57.1 µM] |
| Cc1cc(C)cc(OCC(=O)Nc2nc(-c3cccnc3)cs2)c1 |  | inactive: -1.88% |
| COc1cccc(C(=O)Nc2ccc(NC(=O)c3ccco3)cn2)c1 | inconclusive: 39.8 µM [inhibitor, single point] |  |
| Cc1ccc(NC(=O)CSC2=Nc3ccccc3C3=NC(Cc4ccccc4)C(=O)N23)cc1C (stereo unspecified) |  | inactive: -2.64% [at 57.1 µM] |
| CCOC(=O)c1ccc(NC(=S)N2CCN(CCO)CC2)cc1 |  | inactive: 11% [at 57.1 µM] |
| O=C(c1ccccc1Oc1ccc(C(F)(F)F)cc1[N+](=O)[O-])N1CCOCC1 | inconclusive: 39.8 µM [inhibitor, partial curve, poor fit] |  |
| CCOc1cc(C(=O)Nc2cc3c(cc2N2CCCC2)n(C)c(=O)n3C)cc(OCC)c1OCC | inconclusive: 89.1 µM [inhibitor, single point] |  |
| COc1ccc(OC)c(NC(=O)CSc2ncnc3c2cnn3-c2ccccc2Cl)c1 |  | inactive: -3.15% |
| COc1cc(CN2CC(=O)N(c3cccc(Cl)c3C)C2=S)cc(OC)c1OC |  | inactive: 2.59% |
| CSC1=NSC2=NC(=O)/C(=C\c3cccs3)C(=N)N12 | inconclusive: 70.8 µM [inhibitor, partial curve, poor fit] |  |
| COc1ccccc1CNS(=O)(=O)c1ccc2c(c1)NC(=O)CO2 | inconclusive: 1.12 µM [inhibitor, partial curve, poor fit] |  |
| COc1ccc(C(=O)NCc2ccc(C(=O)O)o2)cc1 | inconclusive: 89.1 µM [inhibitor, single point] |  |
| CC(NC(=O)c1ccc(=O)oc1)c1ccccc1 (stereo unspecified) | inconclusive: 79.4 µM [inhibitor, partial curve, poor fit] |  |

| Compound | Potency | activity change, negative = substrate turnover |
| --- | --- | --- |
| CCCOc1ccc2c3c(c(=O)oc2c1OCCC)CCCC3 |  | inactive: 7.1% [at 57.1 µM] |
| O=C(Nc1ccc(F)cc1)Nc1ccc2c(c1)CCC2 | inconclusive: 31.6 µM [inhibitor, single point] |  |
| CCCCn1c(=NC(=O)C(C)(C)Oc2ccc(Cl)cc2)c(C(=O)OCC)cc2c(=O)n3ccccc3nc21 | inconclusive: 89.1 µM [inhibitor, single point] |  |
| Cc1onc(-c2c(Cl)cccc2Cl)c1C(=O)NC1CCCCC1 | inconclusive: 89.1 µM [inhibitor, single point] |  |
| Cn1nc(-c2ccncc2)nc2c(=O)n(C)c(=O)nc1-2 | active: 20 µM |  |
| CCCCNC(=O)Nc1nc(SCC(=O)OCC)n[nH]1 | inconclusive: 31.6 µM [inhibitor, single point] |  |
| O=C1C=C(N2CCOCC2)c2ccccc2C1=O | active: 25.1 µM |  |
| C=C(C)COc1ccc(-c2[nH]ncc2-c2ccc(OC)c(OC)c2)c(O)c1 |  | inactive: 1.13% |
| CSc1ccccc1NC(=S)NC1CCCC1 |  | inactive: 8.23% |
| CC(C)(CO)Cc1cc(C(C)(C)C)c(O)c(C(C)(C)C)c1 | inconclusive: 39.8 µM [inhibitor, single point] |  |
| Cn1c(=O)c2c(nc(Sc3ncccn3)n2Cc2ccc(Cl)cc2)n(C)c1=O |  | inactive: -0.143% [at 57.1 µM] |
| CCCCCCCCCCCCCCSCC(=O)O | inconclusive: 23.8 µM [inhibitor, partial curve, poor fit] |  |
| CCN(CC)CCn1c(=S)[nH]c2ccccc2c1=O |  | inactive: -1.01% [at 57.1 µM] |
| Cc1cc2c(cc1C)C(=O)C(Br)=C(N)C2=O |  | inactive: -9.41% |
| Cc1ccc(NS(=O)(=O)c2ccc(C)c(C(=O)NCC(c3ccccc3)N(C)C)c2)cc1 (stereo unspecified) | inconclusive: 28.2 µM [inhibitor, single point] |  |
| CC(C)C(=O)N(c1ccc2oc(=O)sc2c1)S(=O)(=O)c1ccccc1 |  | inactive: 3.94% |
| O=C(c1ccc(CS(=O)c2ccccc2Cl)o1)N1CCN(c2cccc(C(F)(F)F)c2)CC1 (stereo unspecified) |  | inactive: -14.5% |
| O=C(c1ccc(N2CCOCC2)c([N+](=O)[O-])c1)N1CCCCC1 | inconclusive: 39.8 µM [inhibitor, single point] |  |
| CC1=NN(C(=O)c2cccc(Cn3nc(C)c([N+](=O)[O-])c3C)c2)C(O)(C(F)(F)F)C1 (stereo unspecified) |  | inactive: 5.97% |
| Cc1ccc(-n2c(=O)c3ccc(C(=O)NCc4ccco4)cc3n(CC(=O)Nc3ccccc3C(F)(F)F)c2=O)cc1 | inconclusive: 89.1 µM [inhibitor, partial curve, poor fit] |  |
| COc1ccc(S(=O)(=O)Nc2ccc(-n3cnnn3)cc2)cc1Br | inconclusive: 56.2 µM [inhibitor, single point] |  |
| COc1ccc(Cl)cc1/C=N/NC(=O)c1c(-c2ccccc2)noc1C |  | inactive: 5.78% |
| O=C1C=CC(=O)c2c(O)c(N3CCN(CCOCCO)CC3)c(Br)c(O)c21 | inconclusive: 70.8 µM [inhibitor, partial curve, poor fit] |  |
| CC(C)n1c(=S)[nH]c2cc(Cl)ccc21 | inconclusive: 89.1 µM [inhibitor, single point] |  |

| Compound | Potency | activity change, negative = substrate turnover |
| --- | --- | --- |
| O=C1C(Cl)=C(Nc2ccc3cn[nH]c3c2)C(=O)c2ccccc21 | inconclusive: 15.8 µM [inhibitor, partial curve, poor fit] |  |
| CN(C)C(CNC(=O)CCC(=O)c1ccc(Br)cc1)c1ccccc1 (stereo unspecified) | inconclusive: 89.1 µM [inhibitor, partial curve, poor fit] |  |
| CSc1ccc(S(=O)(=O)N(C)Cc2ccccc2)cc1 | inconclusive: 89.1 µM [inhibitor, single point] |  |
| Cc1c(NC(=O)/C(C#N)=C\c2cccs2)c(=O)n(-c2ccccc2)n1C | inconclusive: 79.4 µM [inhibitor, partial curve, poor fit] |  |
| Cc1[nH][nH]c(=O)c1C(c1c(C)[nH][nH]c1=O)c1cn(Cc2ccc(F)cc2)c2ccccc12 | inconclusive: 79.4 µM [inhibitor, single point] |  |
| CCCCc1c(C(=O)O)cc(OC)cc1C(=O)O |  | inactive: 5.64% |
| CC(C)CN(Cc1c(O)ccc2ccccc12)CC(C)C |  | inactive: 25.7% |
| CC1CCCC(NC(=O)COC(=O)/C=C/c2ccco2)C1C (stereo unspecified) |  | inactive: -1% |
| COc1ccccc1/C=C/C=N/NC(=O)c1ccco1 | inconclusive: 89.1 µM [inhibitor, single point] |  |
| Cc1cc(O)c(C(C)C)cc1N=Cc1ccc(N(C)C)cc1 | inconclusive: 89.1 µM [inhibitor, partial curve, poor fit] |  |
| CCc1ccccc1NC(=O)NNC(=O)CCc1ccc(OC)cc1 |  | inactive: 4.94% |
| Cc1c(C(=O)N(C)C)sc(NC(=O)c2cc([N+](=O)[O-])cc([N+](=O)[O-])c2)c1C#N | inconclusive: 39.8 µM [inhibitor, partial curve, poor fit] |  |
| Nn1cnnc1N/N=C\c1ccc(-c2ccccc2[N+](=O)[O-])o1 | inconclusive: 89.1 µM [inhibitor, partial curve, poor fit] |  |
| O=C(NNC(=O)c1ccccc1F)C1=NN(c2ccccc2)C(=O)CC1 |  | inactive: 9.27% |
| CCOCC(=O)N1CCN(c2ccc([N+](=O)[O-])cc2)CC1 | inconclusive: 89.1 µM [inhibitor, partial curve, poor fit] |  |
| CCOc1cc(/C=C2/C(=O)ON=C2C)cc(Br)c1O |  | inactive: -6.99% [at 57.1 µM] |
| O=C(O)C1CC=CCC1C(=O)NC1CCCCC1 (stereo unspecified) | inconclusive: 89.1 µM [inhibitor, single point] |  |
| Cc1nc2c(C(=O)NCCC3=CCCCC3)c[nH]n2c(=O)c1Cl |  | inactive: 9.32% |
| NS(=O)(=O)c1ccc(CCNC(=O)c2cc([N+](=O)[O-])ccc2N2CCCCC2)cc1 | inconclusive: 89.1 µM [inhibitor, single point] |  |
| FC(F)Sc1ccc(NC(=S)NC2CCCCC2)cc1 |  | inactive: -1.05% [at 57.1 µM] |
| Clc1cccc(CSc2ncnc3c2ncn3C2CCCCO2)c1 (stereo unspecified) | inconclusive: 89.1 µM [inhibitor, single point] |  |
| O=C(c1ccccc1)c1ccc2n1CCC2C(=O)O (stereo unspecified) | inconclusive: 26.7 µM [inhibitor, partial curve, poor fit] |  |
| CC(=O)c1cccc(N(C(=O)c2ccco2)C(C(=O)NC2CCCC2)c2cccs2)c1 (stereo unspecified) | inconclusive: 89.1 µM [inhibitor, partial curve, poor fit] |  |
